# Data from the supplement of paper PMC12217912.
# Some of the results follow. The full chains were built here from the parent and the listed change. Values near 0.05 are background.
# B1: TEV protease; numbered along this chain (parent)
# chain: MGESLFKGPRDYNPISSSICHLTNESDGHTTSLYGIGFGPFIITNKHLFRRNNGTLVVQSLHGVFKVKDTTTLQQHLVDGRDMIIIRMPKDFPPFPQKLKFREPQREERICLVTTNFQTKSMSSMVSDTSCTFPSGDGIFWKHWIQTKDGQCGSPLVSTRDGFIVGIHSASNFTNTNNYFTSVPKNFMELLTNQEAQQWVSGWRLNADSVLWGGHKVFMVKPEEPFQPVKEATQL
# Variants of: B1
# Assay: raw area under fraction-flipped curve 0-4 h after induction (AUC4h, not background-subtracted), DNA-recorder readout of cleavage of the substrate (dimensionless); higher = more cleavage of the substrate by the protease variant
# Details: temperature: 34 °C; time window: 0-4 h after rhamnose induction
# Protocol: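 In vivo DNA recorder in E. coli TOP10(DE3) ΔrhaA at 34 °C. Each TEVp single-site mutant (parent TEVp 0) is paired with a single-site variant of the 7-mer TEVs (canonical ENLYFQ|S). The substrate sits between flexible linkers in a Bxb1-sfGFP-TEVs-SsrA fusion, so cleavage stabilises Bxb1 and speeds flipping of a recombination array, read by NGS. The value is the raw area under the fraction-flipped curve over 0-4 h after rhamnose induction (AUC4h), with ≥20 reads per time point. It is not background-subtracted; inactive controls average about 0.047.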
# 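Further: Bxb1 expression induced with 0.2% (w/v) L-rhamnose at OD600 near 0.5, cultures sampled hourly, flipped fraction per protease–substrate barcode pair counted by paired-end Illumina sequencing.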
Variant,area with substrate ENCYFQS,area with substrate ENDYFQS,area with substrate ENEYFQS,area with substrate ENFYFQS,area with substrate ENGYFQS,area with substrate ENNYFQS,area with substrate ENQYFQS,area with substrate ENRYFQS,area with substrate ENSYFQS,area with substrate ENTYFQS,area with substrate ENVYFQS,area with substrate ENWYFQS,area with substrate ENKYFQS,area with substrate ENMYFQS,area with substrate ENPYFQS,area with substrate ENYYFQS,area with substrate ENHYFQS,area with substrate ENIYFQS
S18E,0.0287,0.0573,0.0565,0.0611,0.0583,0.0544,0.0554,0.0526,0.0515,0.052,0.0636,0.0745,–,–,–,–,–,–
G39T,0.0425,–,0.0313,0.0336,0.0415,0.0649,–,0.0442,0.0387,–,0.0458,–,0.0475,0.0511,0.0467,0.0677,–,–
L156G,0.0363,0.0502,0.057,0.0412,0.0493,0.0426,–,0.0421,0.0685,0.0513,0.0673,0,–,0.0466,0.0616,–,–,–
T147P,–,0.0662,0.0589,0.0597,0.0654,0.0618,0.0506,0.0651,0.0597,0.0707,0.058,–,0.0626,0.0588,0.0738,–,0.0764,0.0724
D161S,0.0646,0.0596,0.0419,0.0547,–,0.0679,0.0587,0.0631,0.0629,0.059,–,0.059,–,–,0.0587,–,0.0505,0.0775
L190R,–,0.0672,0.0641,0.0709,0.0924,0.0607,0.0626,–,0.0626,0.0611,0.105,–,0.0539,0.0596,–,0.0561,0.0582,–
Q198C,0.0632,0.0858,0.0587,0.0706,0.0627,0.0332,0.062,0.0594,0.117,0.0737,0.0686,0.0571,0.0533,0.0426,0.0664,–,0.0696,–
T176A,0.065,–,–,0.0784,0.0791,–,0.0651,0.0519,0.0658,–,–,–,–,0.0673,0.0728,0.0517,–,–
P14G,0.0709,0.0595,0.0564,0.0625,0.062,0.0637,0.0603,0.0585,0.0608,0.0652,0.0667,0.035,–,0.0927,0.0565,–,0.0544,0.12
V210S,0.0607,0.0661,0.0522,0.0759,–,0.0581,0.0676,–,0.0645,0.052,0.0538,–,0.0536,0.0484,0.0424,0.0859,0.0596,0.0669
V210L,0.0616,0.0588,0.0661,0.0503,0.0584,–,0.0684,0.055,0.0547,0.071,0.0646,–,0.0677,0.0799,–,–,0.0635,0.08
K46V,–,0.0776,–,–,0.0505,0.0418,0.0475,0.0574,0.0428,0.0064,–,0.0531,–,–,–,–,0.0639,–
T71P,–,–,–,–,0.0604,0.04,0.0483,–,0.0538,–,–,0.003,–,–,–,–,0.0578,–
F6Y,–,–,0.0691,–,0.0624,–,–,–,–,–,–,0.0652,–,–,–,–,–,–
F6M,–,–,0.0631,0.0554,0.0653,–,0.0601,–,0.063,0.0643,–,–,–,–,–,0.0461,–,–
V67C,–,0.0741,0.0659,–,0.059,0.0574,0.0664,0.0586,0.0488,0.0624,–,0.0462,–,0.0973,–,0.0592,–,0.139
A207P,–,0.048,0.0619,0.0666,–,0.0638,–,–,0.0537,–,–,–,–,0.0826,–,0.0488,0.0378,0.0911
V165G,0.0477,0.0668,0.0588,0.0506,0.0685,0.0471,0.0454,–,0.0951,0.0452,–,–,0.0562,–,–,–,0.056,0.0811
V200M,–,0.0498,0.0763,0.0776,0.0925,0.056,–,–,–,–,0.066,0.0495,–,0.0644,0.0485,–,0.0675,0.0804
Q194L,0.0626,–,0.0593,0.0611,0.0476,–,0.0509,0.0501,–,–,0.0811,–,–,–,–,0.066,–,0.0908
H62S,–,0.0705,0.0453,–,0.0636,0.0549,0.12,0.061,0.0547,0.0551,0.0818,–,0.0546,0.0888,–,–,–,–
P9Y,0.0601,0.0528,0.0773,0.0686,–,0.0588,0.0504,–,0.0616,0.0742,0.0781,–,0.0554,–,–,0.0364,0.0751,0.15
K98M,–,0.0619,0.0608,0.0834,0.0866,0.0579,0.0443,0.0704,0.0615,–,–,0.0347,0.0612,–,–,0.0627,0.0564,0.0889
G162S,0.0628,–,0.0606,0.0561,0.0509,0.0584,0.0514,0.0542,–,–,–,–,–,0.0637,–,–,–,–
I86D,–,0.0324,0.0341,–,0.0348,–,–,–,0.0225,–,0.0401,–,0.0326,–,0.0268,–,–,0.0227
N175R,0.0731,0.0833,–,0.0549,–,0.0622,0.0648,–,–,–,–,–,–,–,–,0.0654,–,–
